# Results: the supplement of paper PMC8728848
# The list shows a part of the results.
# Experiments:
# Test in all cases: glycan array binding signal (z-score within array); higher = stronger binding
# Settings in all cases: glycan notation: IUPAC condensed, linker removed
# [1] = target: Fuc(a1-2)Gal(b1-4)GlcNAc(b1-3)Gal(b1-4)GlcNAc
# Outline: (§1)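 From the Consortium for Functional Glycomics database, 3228 arrays were curated, keeping only those whose protein sequence was available. Binding is given as a within-array Z-score averaged across arrays sharing a protein sequence and across linkers. Negative Z-scores can be read as non-binding.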
# [2] = target: Fuc(a1-2)Gal(b1-4)GlcNAc(b1-3)Gal(b1-4)GlcNAc(b1-2)Man(a1-3)[Fuc(a1-2)Gal(b1-4)GlcNAc(b1-3)Gal(b1-4)GlcNAc(b1-2)Man(a1-6)]Man(b1-4)GlcNAc(b1-4)GlcNAc
# Outline: as §1
# [3] = target: Fuc(a1-2)Gal(b1-4)GlcNAc(b1-3)Gal(b1-4)GlcNAc(b1-3)Gal(b1-4)GlcNAc
# Outline: as §1
# [4] = target: Fuc(a1-2)Gal(b1-4)GlcNAc(b1-3)GalNAc
# Outline: as §1
# [5] = target: Fuc(a1-2)Gal(b1-4)GlcNAc(b1-3)[Fuc(a1-2)Gal(b1-4)GlcNAc(b1-6)]GalNAc
# Outline: as §1
# [6] = target: Fuc(a1-2)Gal(b1-4)GlcNAc(b1-3)[Fuc(a1-3)[Gal(b1-4)]GlcNAc(b1-6)]Gal(b1-4)Glc
# Outline: as §1
# [7] = target: Fuc(a1-2)Gal(b1-4)GlcNAc(b1-6)GalNAc
# Outline: as §1
# [8] = target: Fuc(a1-2)Gal(b1-4)GlcNAc6S
# Outline: as §1
# [9] = target: Fuc(a1-2)Gal(b1-4)[Fuc(a1-3)]GalNAc(b1-3)Gal(b1-4)[Fuc(a1-3)]GlcNAc
# Outline: as §1
# [10] = target: Fuc(a1-2)Gal(b1-4)[Fuc(a1-3)]GalNAc(b1-3)Gal(b1-4)[Fuc(a1-3)]GlcNAc(b1-3)Gal(b1-4)[Fuc(a1-3)]GalNAc
# Outline: as §1
# [11] = target: Fuc(a1-2)Gal(b1-4)[Fuc(a1-3)]GlcNAc
# Outline: as §1
# [12] = target: Fuc(a1-2)Gal(b1-4)[Fuc(a1-3)]GlcNAc(b1-2)Man(a1-3)[Fuc(a1-2)Gal(b1-4)[Fuc(a1-3)]GlcNAc(b1-2)Man(a1-6)]Man(b1-4)GlcNAc(b1-4)[Fuc(a1-6)]GlcNAc
# Outline: as §1
# [13] = target: Fuc(a1-2)Gal(b1-4)[Fuc(a1-3)]GlcNAc(b1-2)[Fuc(a1-2)Gal(b1-4)[Fuc(a1-3)]GlcNAc(b1-4)]Man(a1-3)[Fuc(a1-2)Gal(b1-4)[Fuc(a1-3)]GlcNAc(b1-2)Man(a1-6)]Man(b1-4)GlcNAc(b1-4)GlcNAc
# Outline: as §1
# [14] = target: Fuc(a1-2)Gal(b1-4)[Fuc(a1-3)]GlcNAc(b1-3)Gal(b1-4)[Fuc(a1-3)]GlcNAc
# Outline: as §1
# [15] = target: Fuc(a1-2)Gal(b1-4)[Fuc(a1-3)]GlcNAc(b1-3)Gal(b1-4)[Fuc(a1-3)]GlcNAc(b1-3)Gal(b1-4)[Fuc(a1-3)]GlcNAc
# Outline: as §1
# [16] = target: Fuc(a1-2)Gal(b1-4)[Fuc(a1-3)]GlcNAc(b1-3)GalNAc
# Outline: as §1
# [17] = target: Fuc(a1-2)Gal(b1-4)[Fuc(a1-3)]GlcNAc(b1-3)[Neu5Ac(a2-6)Gal(b1-4)GlcNAc(b1-6)]Gal(b1-4)Glc
# Outline: as §1
# [18] = target: Fuc(a1-2)Gal3S(b1-4)GlcNAc
# Outline: as §1
# [19] = target: Fuc(a1-2)Gal6S(b1-3)GlcNAc
# Outline: as §1
# [20] = target: Fuc(a1-2)Gal6S(b1-3)GlcNAc6S
# Outline: as §1
# Fuc(a1-2)Gal6S(b1-4)Glc = target: Fuc(a1-2)Gal6S(b1-4)Glc
# Outline: as §1
# [21] = target: Fuc(a1-2)Gal6S(b1-4)Glc6S
# Outline: as §1
# [22] = target: Fuc(a1-2)Gal6S(b1-4)GlcNAc
# Outline: as §1
# Fuc(a1-2)GlcNAc = target: Fuc(a1-2)GlcNAc
# Outline: as §1
# Fuc(a1-2)[Gal(a1-3)]Gal = target: Fuc(a1-2)[Gal(a1-3)]Gal
# Outline: as §1
# [23] = target: Fuc(a1-2)[Gal(a1-3)]Gal(b1-3)GalNAc
# Outline: as §1
# [24] = target: Fuc(a1-2)[Gal(a1-3)]Gal(b1-3)GalNAc(b1-3)Gal(a1-4)Gal(b1-4)Glc
# Outline: as §1
# [25] = target: Fuc(a1-2)[Gal(a1-3)]Gal(b1-3)GlcNAc
# Outline: as §1
# [26] = target: Fuc(a1-2)[Gal(a1-3)]Gal(b1-3)GlcNAc(b1-2)Man(a1-3)[Fuc(a1-2)[Gal(a1-3)]Gal(b1-3)GlcNAc(b1-2)Man(a1-6)]Man(b1-4)GlcNAc(b1-4)GlcNAc
# Outline: as §1
# [27] = target: Fuc(a1-2)[Gal(a1-3)]Gal(b1-3)GlcNAc(b1-2)Man(a1-3)[Fuc(a1-2)[Gal(a1-3)]Gal(b1-3)GlcNAc(b1-2)Man(a1-6)]Man(b1-4)GlcNAc(b1-4)[Fuc(a1-6)]GlcNAc
# Outline: as §1
binder,measurement,setting,value
"MGL1 (Mus musculus), P49300 (protein) MIYENLQNSRIEEKTQEPGKAPSQSFLWRILSWTHLLLFSLGLSLLLLVVVSVIGSQNSQLRRDLGTLRATLDNTTSKIKAEFQSLDSRADSFEKGISSLKVDVEDHRQELQAGRDLSQKVTSLESTVEKREQALKTDLSDLTDHVQQLRKDLKALTCQLANLKNNGSEVACCPLHWTEHEGSCYWFSESEKSWPEADKYCRLENSHLVVVNSLEEQNFLQNRLANVVSWIGLTDQNGPWRWVDGTDFEKGFKNWAPLQPDNWFGHGLGGGEDCAHITTGGPWNDDVCQRTFRWICEMKLAKES",glycan array binding signal (z-score),[1],-0.549
same,glycan array binding signal (z-score),[2],-0.459
same,glycan array binding signal (z-score),[3],-0.616
same,glycan array binding signal (z-score),[4],-0.402
same,glycan array binding signal (z-score),[5],-0.581
same,glycan array binding signal (z-score),[6],0.16
same,glycan array binding signal (z-score),[7],0.694
same,glycan array binding signal (z-score),[8],-0.01
same,glycan array binding signal (z-score),[9],-0.115
same,glycan array binding signal (z-score),[10],-0.14
same,glycan array binding signal (z-score),[11],-0.346
same,glycan array binding signal (z-score),[12],0.133
same,glycan array binding signal (z-score),[13],0.824
same,glycan array binding signal (z-score),[14],-0.019
same,glycan array binding signal (z-score),[15],-0.371
same,glycan array binding signal (z-score),[16],-0.16
same,glycan array binding signal (z-score),[17],-0.672
same,glycan array binding signal (z-score),[18],0.516
same,glycan array binding signal (z-score),[19],-0.41
same,glycan array binding signal (z-score),[20],-0.688
same,glycan array binding signal (z-score),Fuc(a1-2)Gal6S(b1-4)Glc,-0.288
same,glycan array binding signal (z-score),[21],0.081
same,glycan array binding signal (z-score),[22],-0.143
same,glycan array binding signal (z-score),Fuc(a1-2)GlcNAc,-0.156
same,glycan array binding signal (z-score),Fuc(a1-2)[Gal(a1-3)]Gal,0.307
same,glycan array binding signal (z-score),[23],-0.265
same,glycan array binding signal (z-score),[24],-0.015
same,glycan array binding signal (z-score),[25],0.446
same,glycan array binding signal (z-score),[26],-0.706
same,glycan array binding signal (z-score),[27],-0.411
